Measured values as given in the supplement of paper PMC10126150.
Sequences with one replicate were seen in a single cluster, so their values are uncertain.

What follows are sequences tested on ATP (assay: switch fluorescence ratio, 500 uM ATP over buffer (Cy3 cluster intensity, sum of 5 cycles each) (fold (ratio)); higher = stronger signal-on switching upon ATP binding; sequences stand for … in TCGTCGGCAGCGTCAGATGTGTATAAGAGACAGTTTTTTTTTTTTTTTTTTTTTTTTT…TC). Details: aptamer strand: ATP DNA aptamer (quencher-CACCTGGGGGAGTATTGCGGAGGAAGG + anchor), 100 nM annealed; ATP concentration: 500 uM; one replicate.
Summary of the method: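 Five buffer/ATP imaging cycles were run on Cy3-labelled switching-strand clusters on a modified Illumina MiSeq flow-cell, with NaOH stripping and re-annealing between cycles. In each cycle, clusters annealed to 100 nM quencher-labelled ATP aptamer were imaged in selection buffer, then after 15 min with 500 uM ATP at 22 °C. Per cluster, the fluorescence ratio is summed target-cycle over summed buffer-cycle Cy3 intensity, averaged per switch-domain sequence. Only clusters within 100-1000 RFU were kept.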
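Further: ATP exposure 15 min at 22 °C before imaging.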

Row | Sequence | switch fluorescence ratio
1 | GAAATTGCGA | 1.03
2 | GAAATTGTCG | 0.961
3 | GAAATTTATC | 0.97
4 | GAAATTTCGA | 0.959
5 | GAACAAAACG | 0.991
6 | GAACAACCCT | 1.07
7 | GAACAATCG | 1.04
8 | GAACAATGCG | 1.05
9 | GAACAGAGTC | 1.04
10 | GAACATGGAT | 1.02
11 | GAACCACGGC | 1.03
12 | GAACCCCCCG | 1.28
13 | GAACCCCGTC | 1.21
14 | GAACCCGAGT | 1.01
15 | GAACCGATGG | 1.07
16 | GAACGATATG | 1.06
17 | GAACGATGGG | 1.01
18 | GAACGATTTT | 0.907
19 | GAACGGAATC | 3.97
20 | GAACGTCGGG | 0.953
21 | GAACGTTATA | 1.14
22 | GAACTGCAGA | 1.04
23 | GAAGAACTGA | 1.03
24 | GAAGACCGGA | 0.987
25 | GAAGAGGGCA | 1.04
26 | GAAGATCCAA | 1

Row | Sequence | switch fluorescence ratio
27 | GAAGCAACGT | 1.07
28 | GAAGCAGAT | 1.17
29 | GAAGCATGGA | 1.2
30 | GAAGCATGTG | 0.997
31 | GAAGCCGGAG | 0.974
32 | GAAGCGCCAG | 0.998
33 | GAAGCGTAAC | 2.28
34 | GAAGCTGACT | 1.04
35 | GAAGGACGTG | 0.995
36 | GAAGGATATA | 0.959
37 | GAAGGATGCA | 1.02
38 | GAAGGATGGC | 0.948
39 | GAAGGCATCG | 1.06
40 | GAAGGCATGT | 0.966
41 | GAAGGGCTAA | 0.978
42 | GAAGGGTCTT | 0.974
43 | GAAGGGTGAT | 1.04
44 | GAAGT | 0.956
45 | GAAGTAAATA | 1.23
46 | GAAGTAAGC | 1.22
47 | GAAGTAATTA | 0.992
48 | GAAGTCCTCG | 1.02
49 | GAAGTGATGA | 1.07
50 | GAAGTTAGAG | 0.94
51 | GAAGTTTAAC | 1.82
52 | GAATAACCTA | 1.02

Row | Sequence | switch fluorescence ratio
53 | GAATAATCTT | 1
54 | GAATAGCTGG | 0.983
55 | GAATAGGCTG | 0.987
56 | GAATAGTCGC | 0.984
57 | GAATAGTGGA | 0.995
58 | GAATATCCGA | 1.01
59 | GAATATGACA | 1.01
60 | GAATATGAGG | 0.988
61 | GAATATGGGC | 1.02
62 | GAATATTCCG | 1.03
63 | GAATCAAAGT | 0.987
64 | GAATCAAGTC | 0.978
65 | GAATCACCTT | 1.14
66 | GAATCAGGTT | 1.01
67 | GAATCCAAGT | 0.993
68 | GAATCTTTTT | 1
69 | GAATGATGTC | 1.1
70 | GAATGCTTGA | 1.03
71 | GAATGGCTTA | 1.04
72 | GAATGGGCCG | 1.01
73 | GAATGGTTA | 1.03
74 | GAATGTACTT | 1.06
75 | GAATGTCACC | 1.06
76 | GAATTACTAA | 1.06
77 | GAATTAGTAG | 0.97
78 | GAATTGCTCG | 0.995

Row | Sequence | switch fluorescence ratio
79 | GAATTTCGTG | 1.01
80 | GAATTTTAAG | 0.956
81 | GACAAAAGAG | 1.08
82 | GACAAATTAT | 1.06
83 | GACAACCACG | 1.19
84 | GACAACTGCG | 1
85 | GACAAGGGGC | 1.04
86 | GACAATAGCA | 1.09
87 | GACAATTTAG | 0.994
88 | GACAATTTGT | 0.974
89 | GACACAACC | 1.3
90 | GACACATGCC | 1.04
91 | GACACCCGGA | 1.03
92 | GACACGATGG | 1.04
93 | GACACGTCCA | 1.03
94 | GACACTAAG | 1.1
95 | GACAGAAGCC | 1.05
96 | GACAGACCAT | 1.11
97 | GACAGACTAT | 1.05
98 | GACAGATGGC | 0.956
99 | GACAGCAAGT | 1.24
100 | GACAGCACTG | 0.936
101 | GACAGCATAT | 1.89
